According to the supplement of paper PMC12217912:
Some of the results follow. The full chains were built here from the parent and the listed change. Inactive controls read about 0.05.

B1: TEV protease; numbered along this chain (parent)
chain: MGESLFKGPRDYNPISSSICHLTNESDGHTTSLYGIGFGPFIITNKHLFRRNNGTLVVQSLHGVFKVKDTTTLQQHLVDGRDMIIIRMPKDFPPFPQKLKFREPQREERICLVTTNFQTKSMSSMVSDTSCTFPSGDGIFWKHWIQTKDGQCGSPLVSTRDGFIVGIHSASNFTNTNNYFTSVPKNFMELLTNQEAQQWVSGWRLNADSVLWGGHKVFMVKPEEPFQPVKEATQL

Variants of: B1
Experiment: raw area under fraction-flipped curve 0-4 h after induction (AUC4h, not background-subtracted), DNA-recorder readout of cleavage of the substrate (dimensionless); higher = more cleavage of the substrate by the protease variant
Conditions: temperature: 34 °C; time window: 0-4 h after rhamnose induction
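Further: Bxb1 expression induced with 0.2% (w/v) L-rhamnose at OD600 near 0.5, cultures sampled hourly, flipped fraction per protease–substrate barcode pair counted by paired-end Illumina sequencing.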

Row | Variant | area with substrate ENLCFQS | area with substrate ENLGFQS | area with substrate ENLHFQS | area with substrate ENLKFQS | area with substrate ENLMFQS | area with substrate ENLNFQS | area with substrate ENLPFQS | area with substrate ENLRFQS | area with substrate ENLTFQS | area with substrate ENLWFQS | area with substrate ENLDFQS | area with substrate ENLFFQS | area with substrate ENLIFQS | area with substrate ENLQFQS | area with substrate ENLSFQS | area with substrate ENLEFQS | area with substrate ENLVFQS | area with substrate ENLLFQS
1 | G214D | 0.0501 | 0.0781 | 0.0458 | 0.057 | 0.0609 | 0.0619 | 0.0503 | 0.051 | 0.0747 | 0.0533 | – | – | – | – | – | – | – | –
2 | Q194N | 0.068 | – | 0.0857 | – | – | 0.0837 | 0.0691 | – | – | 0.0735 | 0.0614 | 0.0853 | 0.0987 | 0.0686 | 0.0691 | – | – | –
3 | Q75W | – | – | 0.0416 | 0.0535 | 0.0535 | 0.0558 | 0.0497 | 0.0604 | – | – | 0.0607 | 0.0551 | 0.0605 | 0.0217 | 0.041 | 0.0763 | 0.0653 | –
4 | V157E | 0.0691 | – | 0.0575 | 0.0664 | – | 0.0483 | 0.0586 | – | – | 0.0512 | 0.0563 | 0.0513 | 0.0821 | 0.0384 | 0.0422 | 0.0471 | 0.0534 | 0.023
5 | D137F | – | 0.0586 | – | 0.074 | – | 0.082 | 0.0491 | – | – | 0.0818 | 0.0409 | 0.0769 | – | 0.0891 | – | – | – | –
6 | L73E | – | – | 0.0278 | 0.0516 | 0.0555 | 0.05 | 0.049 | – | – | – | 0.0598 | 0.0552 | 0.0617 | 0.0279 | – | – | – | –
7 | L99Y | – | – | 0.0583 | 0.0721 | – | 0.0636 | 0.055 | 0.0685 | 0.0606 | 0.0564 | 0.0551 | 0.0715 | – | 0.0513 | 0.06 | 0.0549 | 0.0936 | 0.0584
8 | K100Y | – | – | 0.08 | – | – | – | 0.063 | 0.127 | – | 0.0562 | 0.0431 | 0.0786 | 0.0887 | 0.052 | – | – | – | –
9 | K100G | – | – | – | 0.0702 | – | 0.064 | 0.0295 | 0.0735 | – | 0.0435 | 0.0663 | 0.084 | – | 0.0685 | 0.0119 | 0.0671 | 0.0913 | –
10 | N175L | 0.0674 | 0.0712 | – | 0.0615 | 0.0788 | 0.0652 | 0.0621 | 0.0679 | – | – | 0.0606 | 0.0782 | 0.0727 | – | – | – | 0.0732 | 0.06
11 | P94W | – | – | 0.0728 | 0.0744 | – | 0.0627 | 0.0527 | 0.0768 | – | – | 0.0464 | 0.0841 | 0.0835 | – | 0.0566 | – | 0.092 | 0.116
12 | P94A | – | – | 0.0638 | – | – | – | – | 0.0757 | – | 0.0628 | 0.0649 | 0.115 | – | – | – | – | – | –
13 | P155I | 0.0651 | – | 0.0563 | 0.0725 | 0.0607 | 0.0587 | 0.0602 | 0.0561 | – | 0.0559 | 0.0626 | 0.0862 | 0.0673 | 0.0567 | 0.0315 | 0.0583 | 0.0676 | 0.0532
14 | Q197V | 0.0612 | 0.0545 | 0.0594 | 0.0757 | – | – | 0.044 | 0.0725 | 0.0709 | – | 0.0642 | 0.0898 | 0.0966 | 0.0605 | 0.0658 | 0.069 | 0.0541 | 0.0721
15 | N116P | – | 0.0635 | 0.0715 | 0.0758 | – | 0.0643 | 0.0452 | 0.0776 | – | – | 0.0571 | 0.0908 | – | 0.0909 | 0.0696 | 0.0741 | 0.0847 | –
16 | N116Y | – | – | – | – | – | 0.0417 | 0.0498 | 0.0772 | – | – | 0.0729 | 0.08 | – | 0.0674 | 0.0638 | 0.0391 | 0.07 | 0.0623

Row | Variant | area with substrate ENLCFQS | area with substrate ENLGFQS | area with substrate ENLHFQS | area with substrate ENLKFQS | area with substrate ENLMFQS | area with substrate ENLNFQS | area with substrate ENLPFQS | area with substrate ENLRFQS | area with substrate ENLTFQS | area with substrate ENLWFQS | area with substrate ENLDFQS | area with substrate ENLFFQS | area with substrate ENLIFQS | area with substrate ENLQFQS | area with substrate ENLSFQS | area with substrate ENLEFQS | area with substrate ENLVFQS | area with substrate ENLLFQS
17 | N45P | – | – | 0.0797 | 0.061 | – | 0.0662 | 0.05 | – | – | – | 0.0692 | – | – | – | 0.0641 | – | – | 0.0524
18 | T147F | – | – | – | 0.0664 | 0.0784 | – | 0.0768 | 0.0637 | – | 0.0573 | 0.0602 | 0.0701 | – | – | – | – | – | 0.0442
19 | T147R | – | – | 0.0519 | 0.0616 | 0.0602 | 0.0654 | – | 0.0549 | – | – | 0.045 | 0.0607 | – | 0.0629 | 0.0577 | 0.0491 | – | 0.0652
20 | M188S | 0.0716 | – | 0.0581 | 0.0783 | – | 0.064 | 0.0679 | 0.0675 | – | – | – | 0.102 | – | – | 0.0666 | – | – | –
21 | L191P | 0.0594 | – | – | 0.0547 | – | – | 0.0567 | 0.0525 | – | – | – | 0.0501 | – | – | 0.0703 | 0.0548 | – | –
22 | L235Q | 0.0677 | – | 0.0692 | – | – | 0.0667 | 0.0622 | 0.0833 | – | 0.0671 | 0.0714 | 0.107 | 0.107 | – | – | 0.0624 | 0.0707 | 0.0827
23 | L235E | 0.0755 | – | – | 0.0853 | 0.064 | 0.0659 | 0.0643 | 0.0571 | – | – | – | – | – | – | – | – | – | –
24 | S4Y | – | 0.0943 | 0.0637 | 0.0859 | – | 0.0483 | 0.0666 | 0.0842 | – | – | 0.0642 | – | 0.121 | 0.0858 | 0.0678 | – | 0.131 | –
25 | V229E | 0.0645 | 0.0727 | 0.0621 | 0.0751 | 0.0717 | 0.0557 | 0.055 | 0.078 | – | – | 0.0585 | 0.0829 | 0.0914 | – | 0.0718 | 0.0571 | 0.0846 | 0.0532
26 | F140V | – | 0.063 | 0.0608 | 0.0594 | 0.0592 | 0.0647 | 0.0634 | 0.0579 | 0.0681 | 0.0563 | 0.0622 | 0.0721 | 0.0607 | 0.0699 | 0.0543 | 0.0563 | 0.0631 | 0.0652
27 | F140L | – | – | 0.0595 | 0.0608 | 0.0352 | 0.0617 | – | – | – | 0.0709 | 0.0616 | 0.0637 | 0.0428 | 0.078 | – | 0.065 | – | 0.0588
28 | F140W | – | – | – | 0.0552 | – | 0.066 | – | 0.0619 | – | – | 0.0435 | – | – | – | – | – | – | –
29 | P222A | 0.0706 | 0.0505 | – | 0.0814 | – | 0.065 | – | – | – | 0.0748 | 0.0528 | 0.0805 | – | – | – | 0.0541 | – | 0.0701
30 | Q59K | – | – | – | – | – | 0.0581 | – | 0.0728 | 0.071 | – | 0.055 | 0.0919 | – | 0.0841 | 0.0721 | 0.0945 | – | –
31 | G54W | – | – | 0.0574 | 0.0604 | – | 0.0553 | 0.0593 | 0.059 | – | – | 0.0486 | 0.062 | – | – | 0.0522 | 0.0584 | – | 0.0566
32 | E195R | 0.0726 | 0.0678 | – | 0.0715 | – | 0.0721 | 0.0592 | 0.065 | – | 0.0638 | 0.0679 | 0.0804 | 0.0646 | – | 0.0508 | – | 0.12 | 0.0599
